Over roughly 81,000 sequences, “one-hybrid fitness for binding parS DNA” has its median near -0.17; the highest 2% begin near 0.51. The list shows a part of the results.
B1: Caulobacter ParB omega fusion; a variant is named by its letters at X, in order, B8GW30 (parent)
chain: MESVVVGEPGMSEGRRGLGRGLSALLGEVDAAPAQAPGEQLGGSREAPIEILQRNPDQPRRTFREEDLEDLSNSIREKGVLQPILVRPSPDTAGEYQIVAGERAWRAAQRAGLKTVPIMVRELDDLAVLEIGIIENVQRADLNVLEEALSYKVLMEKFERTQENIAQTIGKSXSHVANXMRLLXLPDEVQSYLVSGELTAXHARAIAAAADPVALAKQIIEGGLSVRETEALARKAPNLSAGKSKGGRPPRVKDTDTQALESDLSSVLGLDVSIDHRGSTGTLTITYATLEQLDDLCNRLTRGI

Variants of: B1
Experiment: one-hybrid fitness for binding parS DNA (scaled: cognate 1, non-cognate 0); higher = stronger binding
Settings: with parS DNA site
Procedure, shortened: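 Values were rescaled so that cognate is 1 and non-cognate is 0. Each is a fitness, the log change in a variant's read ratio to wild type from Illumina reads of plasmids before and after selection, with three replicate libraries pooled and variants under 10 reads dropped. Selection of the Caulobacter ParB libraries, four specificity codons randomised, used E. coli USO with a HIS3 reporter, site 19 bp from the promoter, on M9-minus-histidine with 0.1 mM IPTG and 5 mM 3-AT for 48 hours at 37°C.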

| Variant | one-hybrid fitness for binding parS DNA |
| --- | --- |
| LVVF | ≤ 0.2 |
| FMAS | ≤ 0.2 |
| MAQR | ≤ 0.2 |
| VADM | ≤ 0.2 |
| EKHY | ≤ 0.2 |
| VCPC | ≤ 0.2 |
| TTFS | ≤ 0.2 |
| AVEG | ≤ 0.2 |
| LDQR | ≤ 0.2 |
| RDNI | ≤ 0.2 |
| LLDS | ≤ 0.2 |
| ECAT | ≤ 0.2 |
| RAHS | 0.985 |
| HFTC | ≤ 0.2 |
| QVLH | ≤ 0.2 |
| DWNG | ≤ 0.2 |
| MPAL | ≤ 0.2 |
| RFYH | 0.256 |
| YRDC | ≤ 0.2 |
| PIPP | ≤ 0.2 |
| RVPR | ≤ 0.2 |
| CQWS | ≤ 0.2 |
| ATPE | ≤ 0.2 |
| PPAC | ≤ 0.2 |

| Variant | one-hybrid fitness for binding parS DNA |
| --- | --- |
| RHDL | ≤ 0.2 |
| PWFS | ≤ 0.2 |
| TVAN | ≤ 0.2 |
| DLTY | ≤ 0.2 |
| TARQ | ≤ 0.2 |
| QGFR | ≤ 0.2 |
| VDGC | ≤ 0.2 |
| TGTY | ≤ 0.2 |
| NPRM | ≤ 0.2 |
| TSDC | ≤ 0.2 |
| SPSR | ≤ 0.2 |
| ESDV | ≤ 0.2 |
| FVPV | ≤ 0.2 |
| ARMK | ≤ 0.2 |
| SVDG | ≤ 0.2 |
| FSHL | ≤ 0.2 |
| TKNC | ≤ 0.2 |
| EMLY | ≤ 0.2 |
| HTAF | ≤ 0.2 |
| WVLS | ≤ 0.2 |
| LLLH | ≤ 0.2 |
| QTTL | ≤ 0.2 |
| MCNF | ≤ 0.2 |
| NAMN | ≤ 0.2 |

| Variant | one-hybrid fitness for binding parS DNA |
| --- | --- |
| RFTH | ≤ 0.2 |
| SKTD | ≤ 0.2 |
| DRRG | ≤ 0.2 |
| ITSI | ≤ 0.2 |
| NESN | ≤ 0.2 |
| SQTR | ≤ 0.2 |
| AIHR | ≤ 0.2 |
| EWYV | ≤ 0.2 |
| SYPR | ≤ 0.2 |
| YPRS | ≤ 0.2 |
| AHVS | ≤ 0.2 |
| PPSQ | ≤ 0.2 |
| GPNR | ≤ 0.2 |
| TPDP | ≤ 0.2 |
| RFMY | 0.454 |
| NLFY | ≤ 0.2 |
| PSLP | ≤ 0.2 |
| NCMW | ≤ 0.2 |
| TNQC | ≤ 0.2 |
| YFER | ≤ 0.2 |
| KVDW | ≤ 0.2 |
| ATGY | ≤ 0.2 |
| TERN | ≤ 0.2 |
| KYET | ≤ 0.2 |

| Variant | one-hybrid fitness for binding parS DNA |
| --- | --- |
| LRTR | ≤ 0.2 |
| PEMY | ≤ 0.2 |
| DGHG | ≤ 0.2 |
| FGLG | ≤ 0.2 |
| QEPT | ≤ 0.2 |
| GCQS | ≤ 0.2 |
| TIFC | ≤ 0.2 |
| IASM | ≤ 0.2 |
| TACE | ≤ 0.2 |
| LAMD | ≤ 0.2 |
| LWRC | ≤ 0.2 |
| RMVI | ≤ 0.2 |
| PMTT | ≤ 0.2 |
| GIIN | ≤ 0.2 |
| REVV | ≤ 0.2 |
| YNSM | ≤ 0.2 |
| RSWY | 0.422 |
| NEPI | ≤ 0.2 |
| PLET | ≤ 0.2 |
| RYII | ≤ 0.2 |
| PENS | ≤ 0.2 |
| CNKS | ≤ 0.2 |
| SVQA | ≤ 0.2 |
| DPNV | ≤ 0.2 |

| Variant | one-hybrid fitness for binding parS DNA |
| --- | --- |
| IIMV | ≤ 0.2 |
| SKCE | ≤ 0.2 |
| LDIG | ≤ 0.2 |
| KGPQ | ≤ 0.2 |
| QKRN | ≤ 0.2 |
| LLCA | ≤ 0.2 |
| PWHG | ≤ 0.2 |
| AVHS | ≤ 0.2 |
| DLMV | ≤ 0.2 |
| NRPM | ≤ 0.2 |
| NEQC | ≤ 0.2 |
| CRCS | ≤ 0.2 |
| DMAG | ≤ 0.2 |
| GCPG | ≤ 0.2 |
| AKHI | ≤ 0.2 |
| SQPM | ≤ 0.2 |
| TYAW | ≤ 0.2 |
| LADD | ≤ 0.2 |
| RVIL | ≤ 0.2 |
| RFSK | ≤ 0.2 |
| APCA | ≤ 0.2 |
| ERQL | ≤ 0.2 |
| LYHP | ≤ 0.2 |
| IMCV | ≤ 0.2 |

| Variant | one-hybrid fitness for binding parS DNA |
| --- | --- |
| AEAD | ≤ 0.2 |
| GCIT | ≤ 0.2 |
| AGPN | ≤ 0.2 |
| DTCS | ≤ 0.2 |
| LMCC | ≤ 0.2 |
| FMGR | ≤ 0.2 |
| HGWT | ≤ 0.2 |
| SICD | ≤ 0.2 |
| RSMQ | ≤ 0.2 |
| IPNR | ≤ 0.2 |
| EKRL | ≤ 0.2 |
| NEKS | ≤ 0.2 |
| QTKW | ≤ 0.2 |
| QAIM | ≤ 0.2 |
| FMLV | ≤ 0.2 |
| RPTW | ≤ 0.2 |
| FTDG | ≤ 0.2 |
| LCAR | ≤ 0.2 |
| AHMD | ≤ 0.2 |
| IDSS | ≤ 0.2 |
| TGNY | ≤ 0.2 |
| NSVY | ≤ 0.2 |
| WIIF | ≤ 0.2 |
| LTTS | ≤ 0.2 |

| Variant | one-hybrid fitness for binding parS DNA |
| --- | --- |
| RFPF | ≤ 0.2 |
| KSWS | ≤ 0.2 |
| RNKK | ≤ 0.2 |
| DMVV | ≤ 0.2 |
| YPLG | ≤ 0.2 |
| PHNS | ≤ 0.2 |
| WYNS | ≤ 0.2 |
| DGSR | ≤ 0.2 |
| VDPG | ≤ 0.2 |
| PKYT | ≤ 0.2 |
| VSQS | ≤ 0.2 |
| HFEY | ≤ 0.2 |
| HVFR | ≤ 0.2 |
| HCQG | ≤ 0.2 |
| IPGV | ≤ 0.2 |
| ARVQ | ≤ 0.2 |
| RLFK | ≤ 0.2 |
| QLES | ≤ 0.2 |
| DHCR | ≤ 0.2 |
| QLQV | ≤ 0.2 |
| FLNT | ≤ 0.2 |
| MPEL | ≤ 0.2 |
| ASRL | ≤ 0.2 |
| GQNV | ≤ 0.2 |

| Variant | one-hybrid fitness for binding parS DNA |
| --- | --- |
| KQQS | ≤ 0.2 |
| CSRR | ≤ 0.2 |
| QICT | ≤ 0.2 |
| QDEP | ≤ 0.2 |
| NQYC | ≤ 0.2 |
| TPNF | ≤ 0.2 |
| PQRC | ≤ 0.2 |
| RTAI | ≤ 0.2 |
| QRRE | ≤ 0.2 |
| FPPA | ≤ 0.2 |
| QFKY | ≤ 0.2 |
| PWWF | ≤ 0.2 |
| HPQL | ≤ 0.2 |
| CYWT | ≤ 0.2 |
| KTAN | ≤ 0.2 |
| RKIT | 0.675 |
| CRTW | ≤ 0.2 |
| YFCR | ≤ 0.2 |
| VGDT | ≤ 0.2 |
| RQHT | 0.892 |
| LRWS | ≤ 0.2 |
| ELGD | ≤ 0.2 |
| QCKI | ≤ 0.2 |
| CKCF | ≤ 0.2 |

| Variant | one-hybrid fitness for binding parS DNA |
| --- | --- |
| QDFV | ≤ 0.2 |
| TFPW | ≤ 0.2 |
| CNNS | ≤ 0.2 |
| QHRV | ≤ 0.2 |
| VLTT | ≤ 0.2 |
| HHLA | ≤ 0.2 |
| NDIG | ≤ 0.2 |
| QHWS | ≤ 0.2 |
| SSPY | ≤ 0.2 |
| PWLM | ≤ 0.2 |
| FFRG | ≤ 0.2 |
| ARNQ | ≤ 0.2 |
| QVSM | ≤ 0.2 |
| KRPM | ≤ 0.2 |
| ARGR | ≤ 0.2 |
| SIQC | ≤ 0.2 |
| TGWT | ≤ 0.2 |
| CMKV | ≤ 0.2 |
| RTEH | 0.208 |
| SSCE | ≤ 0.2 |
| LRPP | ≤ 0.2 |
| LPKY | ≤ 0.2 |
| QQGK | ≤ 0.2 |
| PSKI | ≤ 0.2 |

| Variant | one-hybrid fitness for binding parS DNA |
| --- | --- |
| QFHD | ≤ 0.2 |
| DGSQ | ≤ 0.2 |
| DFHT | ≤ 0.2 |
| GCEA | ≤ 0.2 |
| QTKE | ≤ 0.2 |
| GRPL | ≤ 0.2 |
| RQPF | ≤ 0.2 |
| AAHR | ≤ 0.2 |
| WTYL | ≤ 0.2 |
| GNKV | ≤ 0.2 |
| GMRY | ≤ 0.2 |
| RQQL | ≤ 0.2 |
| CNIY | ≤ 0.2 |
| LRRI | ≤ 0.2 |
| VGAT | ≤ 0.2 |
| QQPE | ≤ 0.2 |
| LVAE | ≤ 0.2 |
| DVGP | ≤ 0.2 |
| PAKS | ≤ 0.2 |
| HIFL | ≤ 0.2 |
| TMAW | ≤ 0.2 |
| DFDR | ≤ 0.2 |
| VSTW | ≤ 0.2 |
| TDNV | ≤ 0.2 |

| Variant | one-hybrid fitness for binding parS DNA |
| --- | --- |
| DWSM | ≤ 0.2 |
| TRYP | ≤ 0.2 |
| QPVS | ≤ 0.2 |
| NPQM | ≤ 0.2 |
| MGNT | ≤ 0.2 |
| KATT | ≤ 0.2 |
| TAIE | ≤ 0.2 |
| ECHG | ≤ 0.2 |
| AFES | ≤ 0.2 |
| YTQP | ≤ 0.2 |
| GISV | ≤ 0.2 |
| RTTL | ≤ 0.2 |
| PWGN | ≤ 0.2 |
| TLSS | ≤ 0.2 |
| TVLN | ≤ 0.2 |
| ATYY | ≤ 0.2 |
| PPES | ≤ 0.2 |
| QPHL | ≤ 0.2 |
| NTDS | ≤ 0.2 |
| SIVS | ≤ 0.2 |
| AALT | ≤ 0.2 |
| CDAT | ≤ 0.2 |
| EHNR | ≤ 0.2 |
| DIHC | ≤ 0.2 |

| Variant | one-hybrid fitness for binding parS DNA |
| --- | --- |
| QNHV | ≤ 0.2 |
| RVYN | 0.46 |
| KSKT | ≤ 0.2 |
| HDER | ≤ 0.2 |
| AKML | ≤ 0.2 |
| IHYG | ≤ 0.2 |
| LIYS | ≤ 0.2 |
| RYIW | ≤ 0.2 |
| QIRM | ≤ 0.2 |
| AVPH | ≤ 0.2 |
| FTHE | ≤ 0.2 |
| NDLS | ≤ 0.2 |
| WIYG | ≤ 0.2 |
| RLLS | 1.05 |
| YKVG | ≤ 0.2 |
| HQKR | ≤ 0.2 |
| NYAL | ≤ 0.2 |
| CQKS | ≤ 0.2 |
| FRMA | ≤ 0.2 |
| TVKL | ≤ 0.2 |
| DRLS | ≤ 0.2 |
| HAST | ≤ 0.2 |
| LQFE | ≤ 0.2 |
| IRGT | ≤ 0.2 |

| Variant | one-hybrid fitness for binding parS DNA |
| --- | --- |
| IMSE | ≤ 0.2 |
| RYDR | ≤ 0.2 |
| QTHG | ≤ 0.2 |
| CFTP | ≤ 0.2 |
| WSQC | ≤ 0.2 |
| LCGG | ≤ 0.2 |
| TPPD | ≤ 0.2 |
| KTVQ | ≤ 0.2 |
| DIFL | ≤ 0.2 |
| HYIG | ≤ 0.2 |
| QYGG | ≤ 0.2 |
| NNYR | ≤ 0.2 |
| PFNP | ≤ 0.2 |
| RMSA | 0.59 |
| QVHP | ≤ 0.2 |
| HLRP | ≤ 0.2 |
| RTMM | 0.346 |
| RYFW | ≤ 0.2 |

From a collection of fitness landscapes (doi:10.1016/j.celrep.2020.107928)
